Test results from the supplement of paper PMC4166925.
± gives the standard deviation of the averaged measurements. The full ranking holds about 33,000 sequences; the median of “E-score (dimensionless, -0.5 to 0.5)” is about -0.049, and the highest 2% start at about 0.37. The list shows a part of the results.

These sequences were tested on T1, PmTbr T-box DNA-binding domain (GST fusion) (assay: PBM E-score of 8-mer (E-score (dimensionless, -0.5 to 0.5)); Tbr is Tbrain of the sea star Patiria miniata (Pm) or the sea urchin Strongylocentrotus purpuratus (Sp); higher = stronger binding preference; most listed sequences are background and not binding sites). Conditions: the construct has about 5 more residues each side.
T1 sequence: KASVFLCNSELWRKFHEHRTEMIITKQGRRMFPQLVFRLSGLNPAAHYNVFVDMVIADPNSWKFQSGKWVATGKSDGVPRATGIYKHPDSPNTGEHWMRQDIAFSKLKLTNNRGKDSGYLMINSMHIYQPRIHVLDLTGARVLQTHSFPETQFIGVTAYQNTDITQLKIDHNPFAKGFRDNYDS
In short: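 GST-fused Tbr T-box DNA-binding domains (the whole T-box plus about five flanking residues) were expressed in BL21 E. coli at 20 °C and purified by glutathione affinity chromatography. Universal Agilent oligonucleotide arrays were made double-stranded by primer extension, incubated with 200 nM protein in PBS (pH 7.5), then scanned and quantified. Every ungapped 8-mer was scored from probe intensities. The Universal PBM Analysis Suite gave each word an enrichment E-score, averaged over duplicate arrays.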

| Sequence | PBM E-score of 8-mer |
| --- | --- |
| AATTCCAC | 0.0936 ± 0.017 |
| TCTGGCCA | -0.246 ± 0.046 |
| ATGGGGCG | 0.0273 ± 0.067 |
| GCGATACC | 0.204 ± 0.013 |
| CCTTAGCA | 0.233 ± 0.046 |
| AGAACTGA | -0.246 ± 0.072 |
| ATCGACGC | 0.176 ± 0.027 |
| GGCCAGAC | -0.265 ± 0.087 |
| ATTTAGTA | -0.18 ± 0.034 |
| GGATTAAA | -0.0843 ± 0.021 |
| GCGGTTGA | -0.0648 ± 0.031 |
| AAACGTAT | -0.162 ± 0.024 |
| ACTGGCAA | 0.106 ± 0.035 |
| ACCGTAAA | -0.133 ± 0.057 |
| GCGCAAAA | 0.127 ± 0.053 |
| AAATGTGG | 0.0797 ± 0.052 |
| CACGTTGC | 0.106 ± 0.088 |
| AGGGAGTA | -0.0737 ± 0.034 |
| AAGTTCAT | -0.0912 ± 0.041 |
| GAGCGCGC | 0.0105 ± 0.017 |
| GGACCCCC | -0.292 ± 0.044 |
| ACTTGCAC | 0.268 ± 0.0028 |
| AGACCACC | -0.134 ± 0.033 |
| AGGCGGCC | -0.268 ± 0.055 |
| AGGTCGAC | 0.0918 ± 0.031 |

| Sequence | PBM E-score of 8-mer |
| --- | --- |
| GGGTACTA | -0.193 ± 0.027 |
| AACGTTAG | -0.0634 ± 0.026 |
| CACTCCTA | 0.0198 ± 0.016 |
| TCCGCACA | 0.104 ± 0.058 |
| ATAAAAAA | -0.114 ± 0.14 |
| CGTGGCGA | 0.0853 ± 0.039 |
| CTAAATTC | -0.0346 ± 0.053 |
| CGGTTCAC | 0.153 ± 0.021 |
| AAGACGTA | -0.0429 ± 0.003 |
| AAGCGGAT | 0.0606 ± 0.055 |
| GACTAAGA | -0.204 ± 0.013 |
| ATGAGGTA | -0.093 ± 0.027 |
| ATCAGTTA | -0.137 ± 0.022 |
| CTTTTCTA | 0.0811 ± 0.085 |
| ACGATGAT | 0.0681 ± 0.019 |
| AGGTGGAT | 0.104 ± 0.022 |
| CTTCTAAA | -0.0714 ± 0.043 |
| TAGACTGA | -0.0772 ± 0.027 |
| CGATCCAG | -0.0702 ± 0.018 |
| GTTCGGCA | -0.118 ± 0.015 |
| ACTCACCA | -0.0425 ± 0.12 |
| ACGCTGAG | -0.127 ± 0.031 |
| AAAATACC | -0.186 ± 0.053 |
| AAGACCCC | -0.317 ± 0.022 |
| TAATGGAA | -0.136 ± 0.095 |

| Sequence | PBM E-score of 8-mer |
| --- | --- |
| CGAATCAC | 0.124 ± 0.029 |
| AAGGAACC | -0.0959 ± 0.045 |
| AAAAGTAT | 0.0149 ± 0.062 |
| GTGTTCTA | 0.231 ± 0.011 |
| ACGGCGTA | -0.0493 ± 0.027 |
| ATTTGAGA | -0.154 ± 0.037 |
| AGCAAGCT | -0.0427 ± 0.01 |
| AATCAACC | -0.0985 ± 0.018 |
| AGAAGTGC | 0.232 ± 0.0082 |
| AACCTCGA | 0.0311 ± 0.022 |
| CTAAGAGC | -0.392 ± 0.031 |
| AGGCCCAC | -0.165 ± 0.082 |
| AAGCCGAC | -0.0913 ± 0.054 |
| AACTTGGA | -0.064 ± 0.028 |
| ACTTCCGA | 0.0946 ± 0.044 |
| CCACCTCC | 0.305 ± 0.024 |
| CGTTCAGC | 0.0353 ± 0.045 |
| GAATACGC | -0.0852 ± 0.011 |
| ACCGTCAA | 0.115 ± 0.0075 |
| AACCGCGA | 0.303 ± 0.024 |
| AGGGCGAC | 0.163 ± 0.066 |
| GGGATGAC | 0.00826 ± 0.091 |
| TCACCGCA | -0.0333 ± 0.086 |
| CCAGCTGG | -0.184 ± 0.026 |
| CGTCATAG | -0.129 ± 0.0068 |

| Sequence | PBM E-score of 8-mer |
| --- | --- |
| GAACATAA | 0.00348 ± 0.022 |
| TCGGGTAA | 0.0151 ± 0.028 |
| CGGCCTGC | -0.195 ± 0.06 |
| GCCTAAAC | 0.0865 ± 0.05 |
| ATGGCCGA | -0.164 ± 0.039 |
| GGCGGCAA | 0.162 ± 0.023 |
| GCGGAGAC | -0.152 ± 0.04 |
| AGCGCGTG | 0.27 ± 0.025 |
| AGTAGTGC | -0.0779 ± 0.0032 |
| CGGAAGCC | -0.237 ± 0.06 |
| AGTGGCGA | 0.3324 ± 0.0019 |
| GCAACATA | -0.0299 ± 0.062 |
| GTGTCTGA | 0.296 ± 0.0069 |
| GTGTCCTA | 0.0998 ± 0.015 |
| GCGAAGAA | 0.246 ± 0.0095 |
| ATTCCACG | -0.0485 ± 0.025 |
| TGACACCA | 0.427 ± 0.02 |
| TCGAATAA | -0.273 ± 0.066 |
| CGCCCAAG | -0.0387 ± 0.12 |
| CTCGGTCC | -0.173 ± 0.032 |
| CCAGACAC | 0.231 ± 0.046 |
| CATCGCCC | -0.00812 ± 0.048 |
| CTAAACTA | -0.136 ± 0.052 |
| CGGTTACA | 0.113 ± 0.013 |
| CATTACCC | -0.23 ± 0.014 |

| Sequence | PBM E-score of 8-mer |
| --- | --- |
| CGTGATAG | 0.23 ± 0.012 |
| TGATTAAA | 0.0272 ± 0.034 |
| ACCGAGAT | -0.0879 ± 0.041 |
| ACAGGCTA | -0.14 ± 0.041 |
| ATTTTAAG | -0.26 ± 0.015 |
| CATTTTCG | -0.00885 ± 0.013 |
| AAGGGCGT | 0.233 ± 0.028 |
| AGGTAACG | 0.0205 ± 0.019 |
| CACTCTCG | 0.254 ± 0.042 |
| GGATAGAA | -0.216 ± 0.043 |
| CCTGCGAG | 0.185 ± 0.021 |
| GCTAGACA | 0.219 ± 0.01 |
| GCCCTGCA | -0.119 ± 0.04 |
| CGGCTGTA | -0.00709 ± 0.024 |
| AACCGAAG | 0.144 ± 0.071 |
| AGACGTAA | -0.2 ± 0.092 |
| AAGATACC | -0.181 ± 0.06 |
| CTCCTGAA | -0.211 ± 0.013 |
| ATCCATTG | -0.235 ± 0.089 |
| GGCATGGA | -0.162 ± 0.012 |
| CTGAATGC | -0.17 ± 0.12 |
| AGCGCCAG | 0.197 ± 0.0052 |
| ACTCAGGC | -0.274 ± 0.065 |
| CCTGTCAA | 0.309 ± 0.024 |
| AGCACCCT | 0.309 ± 0.031 |

| Sequence | PBM E-score of 8-mer |
| --- | --- |
| GTTATGTA | 0.0448 ± 0.081 |
| TCCAGGGA | -0.0279 ± 0.065 |
| CACACTCC | 0.402 ± 0.016 |
| ACAGGGCG | 0.0776 ± 0.037 |
| AGGAGCTG | 0.1919 ± 0.0018 |
| AAGGGCGA | 0.0458 ± 0.039 |
| ATCCCGTG | -0.0223 ± 0.015 |
| AACATATC | -0.00325 ± 0.046 |
| GCTCGGGA | -0.273 ± 0.042 |
| CGGGAGAC | -0.0482 ± 0.029 |
| GATACGTA | -0.103 ± 0.049 |
| ATGTGTGA | 0.4845 ± 0.00059 |
| ATCTTTCC | -0.1531 ± 0.00032 |
| AAGTAATC | -0.203 ± 0.1 |
| AGTGAAAG | 0.141 ± 0.041 |
| CAAGGTCA | 0.0991 ± 0.0032 |
| ATTCTCGC | 0.336 ± 0.016 |
| CCATGCCA | -0.0498 ± 0.0084 |
| ATGAACAT | -0.0253 ± 0.051 |
| CAAACTAG | -0.0443 ± 0.031 |
| CAGGATAG | -0.0621 ± 0.058 |
| AGGTGCCC | 0.0662 ± 0.046 |
| ATCTTGGC | -0.0915 ± 0.17 |
| GAACAGTC | -0.0858 ± 0.063 |
| AGAAAGAG | -0.128 ± 0.032 |

| Sequence | PBM E-score of 8-mer |
| --- | --- |
| CCCGTTTC | -0.179 ± 0.071 |
| ACCTAATC | 0.0479 ± 0.0054 |
| AAAGATAT | -0.0962 ± 0.0051 |
| CCAGATTC | -0.114 ± 0.033 |
| CACGCCCG | 0.297 ± 0.048 |
| TCGCAGCA | 0.176 ± 0.035 |
| GAATGCCC | -0.221 ± 0.026 |
| ATGTGGAG | -0.0959 ± 0.025 |
| GAAACATC | -0.264 ± 0.048 |
| ATTGCGCG | 0.0393 ± 0.076 |
| ATCATTTA | -0.0119 ± 0.068 |
| GGAAGCAA | -0.236 ± 0.11 |
| GACACGGC | 0.187 ± 0.038 |
| CATAAGGC | -0.0993 ± 0.083 |
| AATACAGT | -0.247 ± 0.021 |
| AAGTTTAA | 0.019 ± 0.088 |
| CGAACGTC | -0.0889 ± 0.0086 |
| AAAGGGTT | -0.228 ± 0.062 |
| ACATACAA | -0.0412 ± 0.052 |
| GACCTGCA | 0.0626 ± 0.036 |
| CTCACGTA | 0.1 ± 0.032 |
| AAACCCTG | -0.271 ± 0.044 |
